# Test results as given in PubChem BioAssay AID1508642 (National Center for Advancing Translational Sciences (NCATS), 2021).
# The whole screen tested about 43,000 compounds, of which about 200 (0.47%) were called active. Inconclusive results (about 12%) are left out. Calls come from the whole dose curve; as a rule, active = well fitted cell-killing curve with a large enough effect; inconclusive = small, poorly fitted or top-dose-only effect, or effect the other way; inactive = flat fitted curve, though single readings scatter. The list shows a part of the results.
# Assay: Cell viability qHTS assay in S16 Pmp22-F2sN cells; note: nearly all actives have a fitted effect of over 65% in size
# Conditions: S16 Pmp22-F2sN Schwann cells viability, CellTiter-Glo, 24 h; series mostly up to 57.5 µM; activity change, negative = cytotoxicity: at the top concentration
# Method in brief: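 S16 Pmp22-F2sN Schwann cells (500-1,000/well) in phenol-red-free DMEM with 10% FBS received 23 nL compound by pin tool for 24 h at 37 °C. Viability was then read as CellTiter-Glo luminescence after 15 min at room temperature.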
# % is set by controls: 0 for no effect and ±100 for the full control effect.
row,SMILES,"activity change, negative = cytotoxicity"
1,O=C(CSc1nc2c([nH]c3ccccc32)c(=O)n1-c1ccc(Cl)cc1)N1CCOCC1,inactive: 1.65%
2,CCC1CCCCN1CC(=O)Nc1cc(C)c2c(=O)oc3ccccc3c2n1 (configuration not stated),inactive: 7.52%
3,CCCOc1ccc(C(=O)N(Cc2ccc(N(C)C)cc2)CC2CCCO2)cc1 (configuration not stated),inactive: -7.73%
4,CC1=C(C(=O)Nc2ccccc2)C(CC(C)C)n2nc(SCc3ccccc3C)nc2N1 (configuration not stated),inactive: 1.6%
5,O=C(c1cc2c(s1)-c1ccccc1OC2)N1CCN(c2ccccc2)CC1,inactive: 4.03%
6,CCc1nn(C(CC)C(=O)NCc2ccc(F)cc2)c(=O)c2cc3occc3n12 (configuration not stated),inactive: -3.46%
7,COc1cc(C(=O)NCC(c2ccco2)S(=O)(=O)c2ccccc2)cc(OC)c1OC (configuration not stated),inactive: -1.44%
8,CC(=O)Nc1ccccc1-c1nc2ccccc2n(Cc2cccc(Br)c2)c1=O,inactive: 6.54%
9,CCOc1ccccc1NC(=O)Cn1c(=O)n(Cc2ccccc2)c(=O)c2cccnc21,inactive: -14.2%
10,Cc1cc(C)c(NC(=O)Cn2nnc(-c3ccccc3)n2)c(C)c1,inactive: -0.754%
11,CCOC(=O)C(C)NC(=O)C1CCN(c2ncnc3c2nc2n3CCCCC2)CC1 (configuration not stated),inactive: 1.03%
12,CC1CCC(NC(=O)c2cc3c(Cl)nc4ccccc4c3s2)CC1 (configuration not stated),inactive: -3.5%
13,CCc1nnc(NC(=O)C(=O)c2cc(C)n(-c3ccccc3)c2C)s1,inactive: -15.4%
14,CC(C)N(Cc1ccccc1)C(=O)Cn1ncc2c([nH]c3ccccc32)c1=O,inactive: -1.94%
15,O=C(CN1CCCN(Cc2ccccc2Cl)S1(=O)=O)NCc1ccccc1,inactive: 1%
16,COc1ccc(NC(=O)CCS(=O)(=O)c2ccc3nc(C)sc3c2)cc1Cl,inactive: -5.54%
17,Cc1ccc(-n2ncc(C(=O)NCCc3c[nH]c4ccccc34)c2C2CCN(C(=O)OC(C)(C)C)CC2)cc1C,inactive: -3.09%
18,COc1ccc(NC(=O)C(Cc2ccccc2)n2cccc2)cc1OC (configuration not stated),inactive: -11.8%
19,COc1cc(-c2noc(CCC(=O)Nc3cc(C)ccc3C)n2)cc(OC)c1OC,inactive: -4.38%
20,Cc1ccccc1Cn1c2ccccc2c2cnn(CC(=O)NCCc3ccccc3)c(=O)c21,inactive: 7.72%
21,O=C(Cn1c(-c2cccs2)cc2cc(Cl)ccc21)N1CCN(c2ccccc2F)CC1,inactive: -4.05%
22,CC(NC(=O)CN(c1ccc(Cl)cc1Cl)S(=O)(=O)c1ccccc1)c1ccccc1 (configuration not stated),inactive: -5.91%
23,COc1ccc(C(=O)c2oc3ccccc3c2NC(=O)COc2cccc(C)c2C)cc1,inactive: -1.8%
24,CCC(=O)Nc1ccc(CC)cc1-c1nc2ccccc2n(Cc2ccccc2)c1=O,inactive: 0.56%
25,Cc1ccc(OC(=O)CSc2nnc(-c3cccs3)o2)cc1,inactive: 16.5%
26,Cc1ccccc1C(=O)N(Cc1nc(-c2ccc(Cl)cc2)no1)C(C)C,inactive: -14.6%
27,CCn1c(=O)c2sccc2n2c(CCC(=O)N3CCN(c4ccc(C(C)=O)cc4)CC3)nnc12,inactive: 10.9%
